Measured values reported in PubChem BioAssay AID686971 (National Center for Advancing Translational Sciences (NCATS), 2013).
Several values for one entry are separate records, joined by “and”; a condition that tells them apart may be missing. Identical values can stand only once. The campaign covered roughly 360,000 compounds. About 7,500 (2.1%) were called active. The shares of active, inactive and inconclusive entries below differ from those in the screen. Calls come from the whole dose curve; as a rule, active = well fitted cell-killing curve with a large enough effect; inconclusive = small, poorly fitted or top-dose-only effect, or effect the other way, or another doubt; inactive = no such curve, though single readings can be large or run the other way. Potencies beside an inconclusive call are fits to weak or partial responses and may not hold up.

Assay: qHTS for induction of synthetic lethality in tumor cells producing 2HG: qHTS for the HT-1080-IDH1KD cell line;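 for activity, negative = toxicity: 0% = DMSO wells and -100% = cell-free medium wells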
Conditions: HT-1080 IDH1 knockdown viability, ATP luminescence, 48 h; activity, negative = toxicity: at 46.1 µM (top of the series) unless noted
Summary of the method: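 Knockdown cells (IDH1KD HT-1080) received compounds 2 h after plating at 750 cells/well and were kept 48 h at 37 °C in 5% FBS RPMI. A CellTiter-Glo luminescence read gave % activity for curve fitting.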
Potency is the fitted concentration of half-maximal effect; tags give direction and shape of the fitted curve.

SMILES	activity, negative = toxicity	Potency
CCNc1nc(NCC)n2c(SCC(=O)Nc3ccc(F)cc3[N+](=O)[O-])nnc2n1	inactive: -0.317%	–
C[C@@H](OC(=O)c1[nH]cnc1C(=O)NCc1ccc(CNC(=O)OC(C)(C)C)cc1)c1ccccc1	–	inconclusive: 20.6 µM [cytotoxic, single point]
C=CCN(CC(O)c1cccc([N+](=O)[O-])c1)C(C)CCc1ccccc1 (configuration not stated)	–	inconclusive: 29.1 µM [cytotoxic, single point]
O=C/C(=C\Nc1ccc(Br)cc1)c1nc2ccccc2o1	inactive: -1.07%	–
CN(C)CCC(Oc1ccccc1OCc1ccccc1)c1ccccc1 (configuration not stated)	–	inconclusive: 18.4 µM [cytotoxic, single point]
COc1cccc2sc(Nc3nnc(-c4ccccc4Cl)o3)nc12	–	inconclusive: 2.91 µM [cytotoxic, full curve]
O=C(CSc1nnc(CNC(=O)c2ccccc2F)o1)NC1CCCC1	inactive: 16%	–
S=c1[nH]nc(Cc2ccccc2)n1Cc1ccco1	–	inconclusive: 22.4 µM [cytotoxic, single point]
Cc1ccc(C(=O)N2CCC(C(=O)Nc3cccc([N+](=O)[O-])c3)CC2)cc1	–	inconclusive: 20.6 µM [cytotoxic, single point]
CCC(=Cc1ccccc1OC)c1ccncc1	–	inconclusive: 20.6 µM [cytotoxic, single point]
CCn1c(CNC(=O)COc2ccc(C(C)C)cc2)nnc1SCC(=O)Nc1ccc(F)cc1	–	inconclusive: 35.5 µM [cytotoxic, single point]
COc1ccc(N2CCN(C(=O)CNC(=O)Cc3ccc(Cl)cc3)CC2)cc1	–	active: 20.6 µM
COc1ccc(NC(=S)N(CCc2nc3cc(C)c(C)cc3[nH]2)Cc2cccnc2)cc1	–	inconclusive: 35.5 µM [cytotoxic, single point]
CCc1nnc(NS(=O)(=O)c2ccc(N/C=C/C(=O)c3ccc(OC)cc3)cc2)s1	–	inconclusive: 18.4 µM [cytotoxic, single point]
Cc1ccc(CN2CCC(n3nccc3NC(=O)c3ccccc3C)CC2)o1	inactive: -2.07%	–
COc1ccc(NC(=O)c2cc(-c3sc(NC(=O)c4ccccc4)nc3C)n(CCO)n2)cc1	–	inconclusive: 29.1 µM [cytotoxic, single point]
CC(=O)c1c(C)[nH]c(C(=O)N2CCN(c3ccc(F)cc3)CC2)c1C	–	active: 10 µM
COC(=O)C1=C(C)N(Cc2ccccc2)C(=NCCCCO)N[C@H]1c1ccccc1	inactive: -10.2%	–
NNC(=O)c1cc2ccccc2cc1O	–	inconclusive: 13 µM [cytotoxic, partial curve]
Cc1ccc(C)c(Nc2cc(C)nc(-c3ccccc3O)n2)c1	–	inconclusive: 20.6 µM [cytotoxic, single point]
CCCCNC(=S)NNC(=O)CCn1nc(C)c(Br)c1C	–	active: 1.12 µM
Cc1ccc(S(=O)(=O)N(C)C)cc1NC(=S)NNC(=O)C(N)=O	–	inconclusive: 29.1 µM [rising, single point]
COc1cccc(Nc2nc(C(N)CCc3ccccc3)cs2)n1 (configuration not stated)	–	inconclusive: 29.1 µM [cytotoxic, single point]

SMILES	activity, negative = toxicity	Potency
COc1ccc(NC(=O)C2CCN(c3ncnc4c3nc3n4CCCCC3)CC2)cc1Cl	–	inconclusive: 23.1 µM [cytotoxic, single point]
CCOc1ccc(Cl)cc1S(=O)(=O)n1cnc2ccccc21	–	active: 11.2 µM
O=C1NC(c2ccc(Br)cc2)Nc2ccccc21 (configuration not stated)	–	active: 11.6 µM
COc1ccc(OCC(Cn2cnc3ccccc32)OC(C)=O)cc1 (configuration not stated)	inactive: 1.76%	–
Cc1cc(C)nc(NC(=NCCc2c[nH]c3ccccc23)NC(=O)Nc2ccccc2)n1	inactive: -27.5%	–
Cc1nc(NCC2CC2)c2nnn(Cc3ccccc3)c2n1	–	inconclusive: 16.4 µM [cytotoxic, single point]
CC(=O)Nc1ccc(/C=C/C(=O)c2ccc3c(c2)OCCO3)cc1	–	inconclusive: 23.1 µM [cytotoxic, single point]
Cc1ccc2nc(NCCCO)nc(-c3ccccc3)c2c1	–	inconclusive: 16.4 µM [cytotoxic, partial curve]
Cc1nc(Nc2ccc(F)cc2)[nH]c(=O)c1CCC(C)C	–	inconclusive: 29.1 µM [cytotoxic, single point]
N#Cc1c(-c2cccc(Br)c2)cc(-c2ccco2)[nH]c1=O	inactive: -14.8%	–
CCN(CC)c1ccc(NC(=O)c2ccc3c(c2)c(C)c(C)n3C)cc1	–	inconclusive: 29.1 µM [cytotoxic, single point]
CCN1CCN(Cc2ccc(NC(=O)c3cc(NC(=O)C(=O)c4c[nH]c5ccccc45)cc(OC)c3)cc2C(F)(F)F)CC1	–	inconclusive: 29.1 µM [cytotoxic, single point] and inconclusive: 18.4 µM [cytotoxic, single point]
Cc1cc(SCC(=O)Nc2ccc3[nH]c(=O)[nH]c3c2)nc2ccccc12	–	inconclusive: 32.6 µM [cytotoxic, single point]
CC(C)c1ccc(NC(=O)[C@@H](NC(=O)N2CC(=O)Nc3ccccc32)C(C)C)cc1	–	active: 13 µM
O=C(NCC(c1ccco1)N1CCN(c2ccc(F)cc2)CC1)c1ccc2c(c1)OCO2 (configuration not stated)	inactive: -13.9%	–
CC(=O)Nc1ccc(-c2csc(NC(=O)Cc3cccc(F)c3)n2)cc1	–	inconclusive: 11.6 µM [cytotoxic, partial curve]
CCOC(=O)C1=C(C)OC(N)=C(C#N)C1C1CCCCC1 (configuration not stated)	–	inconclusive: 29.1 µM [cytotoxic, single point]
C1=C(c2ccccc2)Nc2nnnn2C1c1cccs1 (configuration not stated)	inactive: -15.5%	–
Cc1c(Cl)cccc1Nc1nc(N)nc(CSc2ncccn2)n1	–	inconclusive: 35.5 µM [cytotoxic, single point]
COc1ccccc1C1=NOC(COc2ccc3c(C)cc(=O)oc3c2)C1 (configuration not stated)	–	active: 0.731 µM
CC(=O)N(C1=C(Cl)C(=O)c2ccccc2C1=O)C1CCCCC1	–	active: 2.91 µM
O=C(c1cnc2n(c1=O)CCS2)N1CCCc2ccccc21	–	inconclusive: 22.4 µM [rising, partial curve, poor fit]
COc1ccc(NC2=C(c3ccc(OC)cc3)C(=O)c3ccccc32)cc1	inactive: 5.5%	–

SMILES	activity, negative = toxicity	Potency
O=C(Nc1ccnn1C1CCN(Cc2ccc(OC(F)F)cc2)CC1)C1CCCC1	inconclusive: -32.8% [cytotoxic]	–
CC1(C)SC(=S)N(/N=C/c2ccccc2O)C1N(O)C(=O)Nc1ccccc1 (configuration not stated)	–	inconclusive: 20.6 µM [cytotoxic, single point]
COc1ccc(OCCSCc2nnc(NC(=O)Nc3ccc(Cl)cc3)s2)cc1	–	inconclusive: 20.6 µM [cytotoxic, partial curve]
Cc1ccc2c(c1)NC(=O)[C@@]1(C)[C@@H](c3ccccc3)[C@H]3COc4ccc(Cl)cc4[C@@H]3N1C2=O	–	inconclusive: 29.1 µM [cytotoxic, single point]
COc1ccc(-c2cc(C(=O)Nc3nc4c(C)cccc4s3)c3ccccc3n2)cc1OC	–	inconclusive: 15.8 µM [cytotoxic, single point]
COc1ccccc1C(=O)N1C(CC(=O)Nc2ccc(C)c(C)c2)C(=O)NC2CCCCC21 (configuration not stated)	–	inconclusive: 29.1 µM [cytotoxic, single point]
Cc1ccc(OCCCC(=O)NNC(=O)c2ccccn2)cc1	–	inconclusive: 23.1 µM [cytotoxic, partial curve]
Cc1ccc(Cn2c(/C=C/c3ccco3)nc3ccccc32)cc1	–	inconclusive: 32.6 µM [cytotoxic, single point]
COc1ccc(C(=O)C2CCCN(Cc3cccn3-c3nccs3)C2)cc1OC (configuration not stated)	–	inconclusive: 20.6 µM [cytotoxic, partial curve]
O=C(CN1CCC(n2nnc3cc(C(F)(F)F)ccc32)CC1)Nc1ccc2c(c1)OCCO2	inconclusive: -32.6% [cytotoxic]	–
C#CCOCCOCCOCCNc1nc(N2CCN(C(=O)CCCCCCCCCCNC(=O)Cn3cc(C[C@@H](C)O)nn3)CC2)nc(N2CCN(C(=O)CCCCCCCCCCNC(=O)[C@@H]([C@H](C)O)n3cc(C)nn3)CC2)n1	–	active: 20.6 µM
O=c1cc(/C=C/c2ccccc2)oc2ccccc12	–	inconclusive: 25.1 µM [cytotoxic, single point]
Cc1ccc2c(c1)N(CCC(=O)NCCCOC(C)C)C(=O)C(C)O2 (configuration not stated)	–	inconclusive: 2.31 µM [rising, single point]
Cc1cc(NC(=O)/C=C/C(=O)N(c2ccccc2C)C(C(=O)NC2CCCC2)c2ccc(F)cc2)no1 (configuration not stated)	–	active: 10 µM
CCOC(=O)c1c(N)n(C2CC(C)(C)NC(C)(C)C2)c2nc3ccccc3nc12	–	inconclusive: 35.5 µM [cytotoxic, single point]
Cc1oc(-c2cccc(C(F)(F)F)c2)nc1CN1CCN(c2ccccn2)CC1	–	inconclusive: 29.1 µM [cytotoxic, single point]
COc1ccc(Nc2nc(-c3cccs3)nc3ccccc23)cc1S(=O)(=O)N1CCOCC1	–	inconclusive: 20.6 µM [cytotoxic, partial curve]
O=C(NCSc1ccncn1)c1ccccc1	–	inconclusive: 35.5 µM [cytotoxic, single point]
COc1cc(/C=C/C(=O)Nc2cccc(S(=O)(=O)NC3=NCCCCC3)c2)ccc1OCC#N	–	inconclusive: 8.2 µM [cytotoxic, partial curve]
CN(C)CCN(Cc1ccco1)C(=O)c1cc2c(Cl)nc3ccccc3c2s1	–	inconclusive: 20.6 µM [cytotoxic, single point]
O=C(NC(=S)Nc1ccccc1N1CCN(C(=O)c2ccccc2)CC1)c1ccccc1F	–	inconclusive: 23.1 µM [cytotoxic, partial curve, poor fit]
